The record followed here is the RNAGym collection of RNA variant scans (doi:10.7554/elife.90254).

Read counts are not given, so values of variants with three or more changes are uncertain.

B1: LINE1-mini (parent)
chain: GGCAGAGCUCAACACAGCGUGGCAAAGUGGCUGUGGCUAGACUGCC

The data set covers variants of B1. The experiment in a line: self-cleavage, relative activity (ratio to wild type); higher = more cleavage; in vitro, sequencing; the parent is a self-cleaving ribozyme.
With C3U A14C G17A C18G G22U, the self-cleavage stood at 0.03.
To C3U A12G G44U C46U belongs 0.01.
To C3U A11G C23G belongs 0.04; to C3G U20G G33C U38C, 0.04.
In the case of C3G G5A C18A C31U it was 0.05.
In the case of C3G U28A U32C, the self-cleavage is 0.19.
In the case of C3G U9G U32A C45A it was 0; in that of C3G G17U C46G, 0.23.
In the case of C3U A14C G30C it was 0.13; in that of C3U A6G C15A C23A C46G, 0.17.
To C3U A4U C18G G21U belongs 0.04.
As to C3U A4G A6G U34C, the self-cleavage amounted to 0.12.
Regarding C3G G30U C45G, the self-cleavage was determined as 0.19.
In the case of C3G G21C U28A G36A it was 0.08; in that of C3G G27C U28G G30U G33U, 0.1.
To C3G G29U C31A belongs 0.02.
To C3G U43C C45A belongs 0.06; to C3G G5U G27A C45A, 0.11; to C3G C42U G44A, 0.28.
Take C3G G5U U28A G40A: the self-cleavage amounted to 0.05.
In the case of C3G U28G G29U it was 0.27; in that of C3G G19C G21C A39U G44U, 0.03.
For the variant C3G U9G G19U U43C, the self-cleavage is 0.04.
Take C3U A12U G21A A24C U28G: the self-cleavage turned out to be 0.37.
In the case of C3G G7U C45G it was 0.13; in that of C3G U9A A16G, 1.54.
In the case of C3U A12G C15G G21A, the self-cleavage was 0.02.
For C3G C23G A24U U34G, the self-cleavage stood at 0.03.
For the variant C3G G29A G33U, the self-cleavage came out at 0.06.
For C3G G7C U32C C45G, the self-cleavage came out at 0.03.
In the case of C3G G5A G22U A25G G36C it was 0.11.
Take C3G G7U G40A: the self-cleavage came out at 0.15.
In the case of C3G G7A A25C G27U it was 0.08; in that of C3G G22U G30A G40U, 0.09; in that of C3U A4C C10A A14G G22A A39U C42A, 0.03.
To C3U A12C A16C G19A belongs 0.02; to C3G G7C C18U G19U, 0.03; to C3G U9A U43A, 0.15.
In the case of C3U A11G A12G G19C U20A A41U it was 0.01; in that of C3G G19A G29C, 0.92.
For the variant C3G G19C G30C G44U, the self-cleavage was 0.89.
To C3U A6C G7U C13A U20G G21U A24U belongs 0.03; to C3G U9G G19A G27C C45U, 0.66.
In the case of C3U A6C C8U G21U G33U it was 0.07; in that of C3G C23U A41G, 0.03; in that of C3G U28G U32G G35C, 0.01.
To C3G G7C U32G C42G belongs 0.01.
C3G U34G U38C G44A C46U: the self-cleavage came to 0.01.
In the case of C3G G27C C31A G40U it was 0.05; in that of C3G G19C A26U, 0.08; in that of C3U A6U A39G, 0.05.
To C3G G7U A24G C31U belongs 0.08; to C3G U9A G40U, 0.04; to C3U A4U G17U G40C, 0.02.
Turning to C3U A6U A12C G29C, the self-cleavage is 0.02.
In the case of C3U A14G C23A U32C C42A, the self-cleavage stood at 0.06.
In the case of C3G U9C U20G A24C A39U G40U it was 0.01; in that of C3U A6G A16U A26G C45G, 0.2; in that of C3G G17A U20G, 0.07.
In the case of C3G G7A C13A G33U it was 0.06.
As to C3G G5A U9A G27A G36A A39G A41U, the self-cleavage is 0.29.
In the case of C3G G21C A25G G35C it was 0.09.
To C3U A16C G17A A26C U28A G35C belongs 0.06; to C3U A6G G19A, 0.09; to C3G G27A U38A, 0.56.
As to C3G G7U G22A C23U U43G, the self-cleavage amounted to 0.01.
To C3U A11U G44C belongs 0.02.
Take C3G C23U G40A: the self-cleavage turned out to be 0.26.
To C3G G7C G21U G40U belongs 0.02; to C3G G7C C13G G36U, 0; to C3U A4C C18G G29U G36U C37A, 1.41.
In the case of C3G G7U G30C it was 0.11.
In the case of C3G G35C G40U G44C it was 0.09.
With C3U A11G A24G C46U, the self-cleavage was determined as 0.03.
C3U A11C U20A: the self-cleavage amounted to 0.02.
In the case of C3G G21A U34G it was 0.11; in that of C3G G7A A26U U34C G40A, 0.16; in that of C3U A11C A41C, 0.01.
In the case of C3U A11U A12C G22C C46A it was 0.05; in that of C3G G22A G40A, 0.3; in that of C3G G7C C8A U34G C42A, 0.1.
To C3G C23G G35A G36A U38G belongs 0.09; to C3G G7A C8A A24G, 1.26.
Take C3G G5U A6C A11C: the self-cleavage turned out to be 0.05.
Regarding C3G G30U G44U, the self-cleavage amounted to 1.25.
To C3G C23G A25G U32G G35U belongs 0.08; to C3G G7C U38A G44U, 0.02; to C3U A4C G27C U43C C46A, 0.07.
To C3G U9G C18G U32A belongs 0.03; to C3U A12U U32C U34G, 0.
Take C3G G36A A41U: the self-cleavage was 0.18.
In the case of C3U A11C A16U it was 0.02; in that of C3U A14C A24U G33U, 0.11; in that of C3G C31U A41C, 0.02.
To C3U A12G G19A belongs 0.
To C3G U9A C23G C42U C45U belongs 0.08; to C3U A12G A39G U43C, 0.05.
C3G G33U C46G: the self-cleavage is 0.04.
To C3U A4C G5U belongs 0.18; to C3G G27A U38A C45A, 0.02.
In the case of C3G G5U C23G G35C it was 0.02.
In the case of C3U A16C G30C G40C C46A it was 0.04; in that of C3G C23U G27U G44U C45U, 0.1; in that of C3U A6C G19C, 0.09.
In the case of C3G G5C G22C C42A, the self-cleavage came out at 0.31.
In the case of C3U A11U U34A C46A it was 0.03.
In the case of C3G G5U C13A C23A C37G it was 0.02; in that of C3U A11G U20A A25U C31U, 0.01.
In the case of C3U A12U G36A U43A C45U it was 0.09; in that of C3U A16C C31U C37U U43A C46U, 0.05.
C3U A4G G19C A26C G29U A41U C45U: the self-cleavage is 0.04.
In the case of C3U A6G U20C C37G C45U it was 0.03; in that of C3G G5U C13G G22C A41C, 0.03.
In the case of C3U A12U C18G A25U G27C G36U U38G it was 0.01.
As for C3G G19U G35U, the self-cleavage worked out at 0.03.
To C3G G33A G40A belongs 0.07.
To C3U A6G U34G U43A belongs 0.09.
In the case of C3G G19U G22U A25C G36A it was 0.1; in that of C3G G27U G44A C46A, 0.09.
As for C3U A6C A16U, the self-cleavage amounted to 0.34.
To C3U A11G G22A C46G belongs 0.02; to C3U A11C A12U A14G G33A, 0.01.
In the case of C3G G7U U28A C31A it was 0.02; in that of C3G G7A U20C G29U C37G, 0.03.
In the case of C3U A11G C13A A16G G17U G22A C23G U28G it was 0.01; in that of C3G G21U C37U C45G, 0.13.
On to C3G U32C G33U C46A, for which the self-cleavage is 0.2.
In the case of C3G G7C C18A it was 0.05.
Regarding C3G G30U G36U, the self-cleavage came to 0.62.
For C3G G22U A41U, the self-cleavage was determined as 0.48.
As for C3U A4U C10U G44U, the self-cleavage came out at 0.04.
To C3U A11U A16C C23U A25U belongs 0.01; to C3G G29A G40A, 0.04; to C3G G7A A16U G44A, 0.06.
For C3U A14C G19U U20G U32A G40A, the self-cleavage came out at 0.13.
In the case of C3U A4G A16U it was 0.02; in that of C3G G22A G29C G36A, 0.14; in that of C3G U20A G40U, 0.07.
Take C3G G7U A11U C45A C46A: the self-cleavage came to 0.01.
Consider C3G C23U G30C C42U, for which the self-cleavage came out at 1.21.
In the case of C3U A12G A25G G40C it was 0.12; in that of C3G U20G G33C G35A, 0.1.
To C3G G7C G33U U34A C37U belongs 0.02; to C3G G7A A26C, 0.52; to C3U A6G A12U C13A A16G G19A C42A C45A, 0.
For C3U A4G A11U G19U U34A, the self-cleavage was determined as 0.02.
To C3G U20G G22U G36A G40A C42U C45A belongs 0.03; to C3U A6U C23G G35U A39U, 0.16.
Regarding C3G G40A A41U, the self-cleavage was 0.32.
To C3G G5U C13A G40A belongs 0.1; to C3G G22U G44C, 1.84.
To C3U A14U C42A belongs 0.07; to C3U A6U C42A G44U, 0.15.
As for C3U A4C C10U A16G U32C A41G, the self-cleavage amounted to 0.1.
In the case of C3U A11U A12U U38G it was 0.
To C3G G29U U38A U43C G44A belongs 0.18; to C3U A4G C23G G29C, 0.02.
To C3U A12G U38C belongs 0.06; to C3G G27C C37A C42A C45U, 0.01; to C3G G5C C15U G19A A25C G29U G35C A39G, 0.04.
On to C3G G17A G35A G36C, for which the self-cleavage was found to be 0.07.
Consider C3U A6C A11U C15U G35U G36U C42A, for which the self-cleavage amounted to 0.01.
To C3U A11C C23U G33A belongs 0.03; to C3U A6C A16C G27C G36U G40A, 0.09; to C3G U9G G19C A39G, 0.03.
To C3U A11C U43A belongs 0.02.
Turning to C3U A6C G17U, the self-cleavage worked out at 0.12.
